The source holds more than one record for some entries. The other results are left out here. An entry can have further records. Values that stand side by side are repeats in other runs, samples, wells, individuals or studies. Signs of the kind (2×) stand for listed records that agree.
System: 885512-296-R-J2-PDC complex spheroid growth, % test/control
Assay: Anticancer human tumor 885512-296-R-J2-PDC patient-derived breast carcinoma cell line growth inhibition [AhR]
Settings: for viability, T/C: stronger effect = lower value; for IC50: compound alone
Description: Multicellular complex tumor spheroid response to aryl hydrocarbon receptor antagonists in combination with a variety of drugs and investigational agents in selected tumor cell lines
The current study was undertaken to assess response to aryl hydrocarbon receptor antagonists in combination with standard-of-care drugs and investigational agents in solid tumor complex spheroid models. Complex spheroids include a stromal component modeled by human endothelial cells (HUVEC) and fibroblasts modeled by human mesenchymal stem cells (MSCs). The concentration ranges selected for each drug and investigational agent were based upon clinically achievable concentrations if the clinical Cmax of the agent was known.
Compounds. The drugs and investigational agents: BAY 2416964 (NSC825713), GNF351 (NSC835774), CH-223191 (NSC835775), CPI-455 (NSC825282), aza-TdCyd (NSC777586), decitabine (NSC127716), belinostat (NSC758774), entinostat (NSC756642), pevonedistat (NSC761192), tazemetostat (NSC777109), talazoparib (NSC765396), olaparib (NSC753686), selinexor (NSC780203), nedisertib (M3814, NSC802822), bortezomib (NSC756655), venetoclax (NSC766270), doxorubicin (NSC123127), elimusertib (BAY189344, NSC800525), ceralasertib (AZD6738, NSC777638), TAK-243 (NSC785004), alisertib (NSC759677), etoposide (NSC141540), topotecan (NSC609699), eribulin (NSC707389), gemcitabine (NSC613327), carboplatin (NSC241240), cisplatin (NSC119875), and SN-38 (NSC673596) were obtained from the National Cancer Institute (NCI) Developmental Therapeutics Program Chemical Repository (32). The FDA-approved anticancer drug set is available from the Developmental Therapeutics Program at https://dtp.cancer.gov/organization/dscb/obtaining/available plates.htm. […] The stock solutions were prepared in dimethyl sulfoxide (DMSO, Sigma-Aldrich, St. Louis, MO, cat. D2650), except for the platinum compounds which were prepared in saline (Quality Biological, Gaithersburg, MD, cat. 114-055-101), at 800-fold the tested concentration and stored at -70 degrees C prior to their use. All drugs and investigational agents were tested over a range starting from a high concentration at or near the clinical Cmax and decreasing in half-log increments. If the clinical Cmax for an agent had not been determined, the highest concentration tested was 10 microM (Table 1).
Cell Culture. All cells were maintained in an incubator at 37 degrees C and 5% CO2 with 95% humidity. The PDC lines were cultured according to standard operating procedures established by the NCI PDMR (https://pdmr.cancer.gov). Briefly, all PDCs were thawed and cultured in Matrigel-coated flasks prepared with a working solution of 1X Ham's F-12 nutrient mix, without supplementation (Invitrogen, Waltham, MA, cat. 11765054), 100 U/mL penicillin-streptomycin (Invitrogen, cat. 15140122), and 2.5% Matrigel (Corning Inc., Corning, NY, cat. 354248) for the first three passages. All PDCs were cultured in complete DMEM/F-12 media containing advanced DMEM/F-12 (Invitrogen, cat. 12634028), 4.9% defined fetal bovine serum, heat inactivated (HyClone Laboratories Inc., Logan, UT, cat. SH30070.03HI), 389 ng/mL hydrocortisone (Sigma-Aldrich, cat. H4001), 9.7 ng/mL human EGF recombinant protein (Invitrogen, cat. PHG0313), 23.4 microg/mL adenine (Sigma-Aldrich, cat. A2786), 97.3 U/mL penicillin-streptomycin (Invitrogen, cat. 15140122), 1.9 mM L-glutamine (Invitrogen, cat. 25030081), and 9.7 microM Y-27632 dihydrochloride (Tocris Bioscience, Bristol, United Kingdom, cat. 1254). The PDCs were cultured in complete DMEM/F12 media without 10 microM Y-27632 dihydrochloride for at least two passages prior to the screen. The established cell lines NCI-H1341 and […] were cultured in DMEM/F-12, HEPES (Invitrogen, cat. 11330032), 5% defined fetal bovine serum (HyClone Laboratories Inc., cat. SH30070.03), ITS premix universal culture supplement [insulin (5 microg/mL), transferrin (5 microg/mL), and selenious acid (5 ng/mL)] […]
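Note: spheroids exposed to compounds for seven days.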

SMILES | viability, T/C (compound alone 0.1 µM) | viability, T/C (compound alone 3.16 µM) | IC50 | viability, T/C (compound alone 0.316 µM) | viability, T/C (compound alone 1 µM) | IC50 (run of 08/22/2022)
CC(CO)NC(=O)c1cc(-c2ccc(Cl)cc2)nn(-c2cnn(C)c2)c1=O (stereo not given) | 105, 91.7, 103 (2×), 97, 102, 97.8, 99.2, 95.4, 85.8, 99.1, 84.2, 96.1, 104 (2×), 95.1, 96.3, 111, 90.3, 90.5, 106% | 105 (2×), 115, 82.6, 102, 106, 83.6, 97.4, 93.1, 95.4, 101, 98.4, 92.5, 104, 99, 90.9, 100, 96% |  |  |  | 
COc1cc(Nc2ncc3c(n2)-c2ccc(Cl)cc2C(c2c(F)cccc2OC)=NC3)ccc1C(=O)O |  |  | 39.4 nM, 52.3 nM, 3.86 µM |  |  | 
Cc1ccccc1N=Nc1ccc(NC(=O)c2ccnn2C)c(C)c1 | 108 (2×), 103, 101, 98.4, 113 (2×), 136, 99.7, 114, 105, 100, 95.2, 99, 91, 112, 111, 97.5, 106% | 83, 93.7, 84.3, 80.3, 81.9, 95.1, 103, 110, 78.4, 87.6, 79.1, 83.2, 79, 97.5, 96.6, 81.1, 96.2, 92, 94.2, 87.3% |  | 104, 106 (2×), 107, 95.9, 109, 116, 113 (2×), 126, 118, 117 (2×), 97.6, 96.7, 123, 98.7, 114, 90.8, 105% | 98.3, 109, 104 (2×), 102 (3×), 105 (2×), 107, 108, 110, 97.7, 96.2, 101, 116, 87.7, 96.4, 112, 103% | > 10 µM, 9.3 µM, 9.82 µM, 9.9 µM, 8.77 µM, 9.61 µM, 9.7 µM, 8.3 µM, 9.23 µM, 9.88 µM
Cc1cncc(-c2nc(NCCc3c[nH]c4ccccc34)c3ncn(C(C)C)c3n2)c1 |  |  |  | 98, 121, 103, 101, 95.7 (2×), 100, 92.9, 113 (2×), 122, 92.6, 104, 106 (2×), 114, 109, 93.4, 91.8, 91.6% | 99.2, 95.9, 93.6, 81.3, 85.8, 82.2, 79.9, 85.5, 99.9, 96.6, 90.5, 96.8, 77.1, 103, 83.7, 89.7 (2×), 88, 67.1, 81.7% | 

Reference: PubChem BioAssay AID1919006 (Molecular Pharmacology Branch, DTP, NCI, 2023)
